The shares of active, inactive and inconclusive entries below differ from those in the screen. For some assays here: No potency is given beside an inconclusive call; the fits are too rough. The source made the active and inactive calls. The call rests on the fitted dose curve; in most records, active means well fitted curve in the direction sought with a large enough effect; inconclusive means small, poorly fitted or top-dose-only effect, or another doubt; inactive means no such curve, though single readings can be large; an effect the other way counts as inactive or inconclusive.
Key:
[1] = system: Zika virus NS2B-NS3 protease (linked construct); assay: Primary screen NINDS Rhodamine qHTS for Zika virus inhibitors (AID 1347160); further: potency means the concentration at half of the fitted maximal effect; nearly all actives have a fitted effect of over 55% in size
How it was run: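 Rhodamine110-peptide cleavage (1.5 µM substrate) by 25 nM linked NS2B-NS3 enzyme at pH 8.0 (Tris, Tween 20), after 15 min RT preincubation with compounds; 15-min fluorescence change normalized to controls and Hill-fitted.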

[2] = A2780 Cisplatin Sensitive Ovarian Cancer Cell Toxicity qHTS against the NCATS CANVASS Library (AID 1347353); further: nearly all actives have a fitted effect of over 60% in size; further: potency means the concentration at half of the fitted maximal effect
How it was run: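 Cisplatin-sensitive A2780 ovarian cells (750/well) received compound in 11 concentrations, and were incubated 72 h at 37 °C. ATP content was measured by ATPLite luminescence; bortezomib served as control.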

[3] = qHTS for Hypoxia signaling pathway (HIF-1) antagonists against the NCATS CANVASS Library (AID 1347374); further: nearly all actives have a fitted effect of over 60% in size; further: potency means the concentration at half of the fitted maximal effect
How it was run: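 Antagonism scored as loss of CoCl2-driven (60 uM stock added) HRE beta-lactamase signal, read by CCF4 FRET at 460/530 nm. Compounds were tested in an 11-point series on ME-180 reporter cells for 17 hrs at 37C, with parallel CellTiter-Glo cytotoxicity.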

[4] = DH5-alpha competent E. coli microbial cell viability qHTS against the NCATS CANVASS Library (AID 1347377); conditions: viability signal change, negative = cytotoxic: at 46.1 µM (top of the series)
How it was run: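 Bacterial viability as ATP-dependent luminescence (BacTiter-Glo), read after overnight 37 °C exposure of DH5-alpha competent E. coli to compounds in 11-point titration.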

[5] = qHTS for Antimalaria activity screened against the NCATS CANVASS Library (AID 1347380); further: nearly all actives have a fitted effect of over 40% in size; further: potency means the concentration at half of the fitted maximal effect
How it was run: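 SYBR Green fluorescence at 485/535 nm was read 18 hr after lysis. This followed a 72 hr incubation at 37C in 5% O2, 5% CO2 of Dd2-infected erythrocytes (0.3% parasitemia, 2.5% final hematocrit) with compounds titrated over 11 concentrations.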

[6] = qHTS assay for small molecule disruptors of mitochondrial membrane potential screened against the NCATS CANVASS Library (AID 1347389); further: potency means the concentration at half of the fitted maximal effect; nearly all actives have a fitted effect of over 60% in size
How it was run: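 Mitochondrial membrane potential in HepG2: 1 h compound treatment (11-point concentration series), 30 min m-MPI dye at 37C, then dual fluorescence of J-aggregates (ex 540/em 590) and monomers (ex 490/em 535); lower red/green ratio indicates depolarization.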

[7] = qHTS for inhibitors of ER calcium dysfunction: SERCaMP assay screened against the NCATS CANVASS Library (AID 1347393); conditions: SH-SY5Y GLuc-SERCaMP (Gaussia luciferase released on ER calcium loss) secretion, thapsigargin, luminescence; series mostly up to 76.6 µM; further: potency means the concentration at half of the fitted maximal effect; nearly all actives have a fitted effect of over 40% in size
How it was run: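 qHTS in SH-SY5Y reporter cells: 16 h compound pretreatment, 4 h thapsigargin, then secreted Gaussia luciferase measured by luminescence.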

[8] = Vero-766 cells viability qHTS against the NCATS CANVASS Library: Counterscreen for Zika virus inhibition assay (AID 1347394); conditions: Vero 766 viability, CellTiter-Glo luminescence, 72 h; activity change, negative = cytotoxic: at 46.1 µM (top of the series); further: nearly all actives have a fitted effect of over 60% in size
How it was run: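 Vero 766 cells (1000/well), without Zika virus, were exposed to compounds for 72 h at 37C. Viability was measured by CellTiter Glo luminescence. Media-only wells served as 100% inhibition.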

[9] = qHTS for inhibitors of Wild type Zika virus screened against the NCATS CANVASS Library (AID 1347396); further: potency means the concentration at half of the fitted maximal effect
How it was run: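 Luminescent CellTiter Glo read-out of virus-induced cytotoxicity, 72 h post-infection, in Vero 766 cells. Compounds were tested at 11 concentrations; uninfected, vehicle-treated wells defined 100% inhibition.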

[10] = KB-8-5-11 Cancer Cell Toxicity qHTS against the NCATS CANVASS Library (AID 1347364); conditions: activity change, negative = toxicity: at 46.1 µM (top of the series); further: nearly all actives have a fitted effect of over 75% in size
How it was run: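 Viability read as CellTiter-Glo luminescence after 72 h at 37 °C, 5% CO2. 11-point compound series on 500 KB-8-5-11 cells/well in DMEM/10% FBS. Follow-up plating included 1 uM tariquidar in the medium.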

[11] = SDT Cancer Cell Toxicity qHTS against the NCATS CANVASS Library (AID 1347365); further: nearly all actives have a fitted effect of over 60% in size; further: potency means the concentration at half of the fitted maximal effect;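 on activity change, negative = cytotoxicity: SDT canine glioma cells 500 per well in 1536 well plates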
How it was run: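 Cytotoxicity taken from CellTiterGlo ATP luminescence after 72 hr at 37C, 5% CO2. Canine glioma line SDT, 500 cells/well, treated at 11 concentrations; bortezomib dose series as control.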

[12] = G06 Cancer Cell Toxicity qHTS against the NCATS CANVASS Library (AID 1347368)
How it was run: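 Viability measured by CellTiterGlo ATP luminescence after 72 hr at 37C, 5% CO2. Canine G06 glioma cells plated at 500/well. Compounds tested as 11-point qHTS titrations.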

[13] = J3T Cancer Cell Toxicity qHTS against the NCATS CANVASS Library (AID 1347371);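 further: J3T is a canine glioma cancer cell line seeded at 500 cells per well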
How it was run: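 Cytotoxicity read as CellTiterGlo ATP luminescence after 72 h incubation (37C, 5% CO2) of J3T canine glioma cells (500/well) with an 11-point compound series.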

[14] = U-118MG Cancer Cell Toxicity qHTS against the NCATS CANVASS Library (AID 1347351)
How it was run: (§1)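 Cells were seeded at 1000 per well, allowed 4 h at 37 degrees C/5% CO2, then pin-treated with an 11-point compound series. After 72 h, viability was read as CellTiter-Glo luminescence following 15min at room temperature.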

[15] = qHTS for ATAD5 Antagonist screened against the NCATS CANVASS Library (AID 1347370); further: potency means the concentration at half of the fitted maximal effect; nearly all actives have a fitted effect of over 65% in size
How it was run: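 Compounds (11-point) co-dosed with 10 µM 5-FUrd for 16 h at 37 °C onto HEK293T-ATAD5 luciferase reporter cells. Viability measured by CellTiter-Fluor fluorescence, then ATAD5 reporter signal by luminescence.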

[16] = qHTS for activators of Nrf2/ARE signaling pathway screened against the NCATS CANVASS Library (AID 1347391)
How it was run: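 Eleven-point qHTS, 16 h treatment of HepG2 cells carrying an ARE-driven beta-lactamase reporter; CCF4 ratio read (405 nm excitation, 460 and 530 nm emission), with CellTiter-Glo ATP luminescence for viability.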

[17] = Panc-1005 Cancer Cell Toxicity qHTS against the NCATS CANVASS Library (AID 1347349); further: nearly all actives have a fitted effect of over 60% in size; further: potency means the concentration at half of the fitted maximal effect
How it was run: as §1

[18] = MCF7 Cancer Cell Toxicity qHTS against the NCATS CANVASS Library (AID 1347369); conditions: activity change, negative = cytotoxicity: at 46 µM (top of the series)
How it was run: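 MCF7 cells (500/well) were exposed 72 h at 37 °C to compounds in an 11-point series. Viability was read as ATP content by CellTiterGlo luminescence.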

[19] = target: Nuclear receptor subfamily 1 group I member 3 (Homo sapiens) (UniProt Q14994); assay: qHTS for Constitutive Androstane Receptor (CAR) Antagonist screened against the NCATS CANVASS Library (AID 1347372);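 further: cells stimulated with 50 nM CITCO agonist so inhibition reflects antagonism; luciferase from CYP2B6 promoter reporter driven by hCAR in HepG2 cells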
How it was run: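 Cells were seeded and left 4hr to attach, then received compound at 11 concentrations and 50 nM CITCO. Following 24hr incubation, fluorescence viability and luciferase luminescence were read sequentially.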

[20] = qHTS for Activators of p53 Stress Response Pathway screened against the NCATS CANVASS Library (AID 1347388); further: potency means the concentration at half of the fitted maximal effect
How it was run: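 p53RE-bla HCT-116 cells (4000/well) were plated 5 h at 37C, exposed to compounds for 16 h at 37C over an 11-point concentration series, then loaded with CCF4 for 2 h at room temperature; 460/530 nm emission ratio read.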

[21] = UWB1.289-WTBRCA1 Cancer Cell Toxicity qHTS against the NCATS CANVASS Library (AID 1347354)
How it was run: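 Toxicity was measured as CellTiter-Glo luminescence after 72 h exposure to an 11-point compound series. Compound was added to 1000 cells/well 4 h after seeding.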

[22] = KB-3-1 Cancer Cell Toxicity qHTS against the NCATS CANVASS Library (AID 1347366); further: nearly all actives have a fitted effect of over 75% in size
How it was run: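 KB-3-1 cells (500/well) in DMEM with 10% FBS were exposed to compounds for 72 h at 37C. Viability was read by CellTiter-Glo luminescence.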
Tags describe the fitted curve by direction and shape.

UniProt Q14994, sequence (Q14994 whole entry, looked up): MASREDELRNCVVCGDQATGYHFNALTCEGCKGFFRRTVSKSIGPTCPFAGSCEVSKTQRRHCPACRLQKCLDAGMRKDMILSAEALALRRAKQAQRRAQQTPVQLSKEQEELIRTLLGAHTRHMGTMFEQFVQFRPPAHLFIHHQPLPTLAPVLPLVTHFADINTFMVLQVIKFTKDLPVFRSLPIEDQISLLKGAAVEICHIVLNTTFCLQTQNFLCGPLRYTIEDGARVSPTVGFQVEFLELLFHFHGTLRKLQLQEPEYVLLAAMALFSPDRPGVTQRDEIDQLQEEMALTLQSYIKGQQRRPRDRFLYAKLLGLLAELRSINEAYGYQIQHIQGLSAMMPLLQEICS

In the case of [C-]#[N+][C@@]12C(=O)[C@@H]3[C@@H](O[C@@]4(C(=O)N(C)c5cccc1c54)C3(C)C)C(=O)[C@@]2(C)C=C, the Potency [1] was inconclusive [inhibitor, partial curve], the Potency [2] was “inactive” and the Potency [3] was active: 2.98 µM. For the same molecule, the Potency [4] was “inactive”, the Potency [5] was inconclusive [cytotoxic, full curve, poor fit] and the Potency [6] was inconclusive [inhibitor, full curve]. For the same molecule, the Potency [7] was inconclusive [inhibitor, partial curve, poor fit], the Potency [8] was “inactive” and the Potency [9] was inconclusive [inhibitor, partial curve].
With Cc1cc(O)cc2oc(C[C@H](C)O)cc(=O)c12 the Potency [1] was active: 44 µM, the Potency [10] was “inactive” and the Potency [11] was active: 1.48 µM. For the same molecule, the Potency [12] was inconclusive [cytotoxic, full curve], the Potency [13] was “inactive” and the Potency [5] was “inactive”. For the same molecule, the Potency [8] was “inactive” and the Potency [9] was “inactive”.
In the case of CO[C@@H]1[C@H](O)[C@@H](C)O[C@@H](OC[C@@H]2C(C)OC(=O)/C=C/[C@H](C)C(O[C@@H]3O[C@H](C)CC4(OC(=O)O[C@@H]4C)C3O)[C@@H](C)CC(C)C(=O)CC[C@H]3OC23)[C@@H]1OC (stereo partly specified), the Potency [1] was active: 49.3 µM, the Potency [14] was “inactive” and the Potency [12] was inconclusive [cytotoxic, partial curve]. For the same molecule, the Potency [15] was inconclusive [inhibitor, partial curve], the Potency [3] was “inactive” and the Potency [5] was “inactive”. For the same molecule, the Potency [16] was inconclusive [activator, partial curve, poor fit] and the Potency [7] was inconclusive [inhibitor, partial curve].
In the case of Oc1ccc(C2c3c(O)cc(O)cc3[C@@H]3C(c4ccc(O)cc4)c4c(O)cc(O)cc4[C@H]23)cc1 (stereo partly specified), the Potency [1] was active: 34.9 µM, the Potency [17] was inconclusive [cytotoxic, single point] and the Potency [2] was inconclusive [cytotoxic, single point]. The Potency [11] was “inactive”, the Potency [18] was “inactive” and the Potency [19] was “inactive”. For the same molecule, the Potency [5] was inconclusive [cytotoxic, full curve, poor fit], the Potency [20] was inconclusive [activator, single point] and the Potency [6] was inconclusive [inhibitor, single point].
With COC1C(C)OC(OCC23C[C@@H]4[C@H](C)CC[C@H]4C4(C=O)CC2C=C(C(C)C)C34C(=O)O)[C@@H](O)[C@H]1O (stereo partly specified) the Potency [1] was inconclusive [inhibitor, partial curve, poor fit], the Potency [17] was “inactive” and the Potency [2] was “inactive”. For the same molecule, the Potency [21] was “inactive”, the Potency [22] was “inactive” and the Potency [13] was “inactive”. The Potency [5] was “inactive”.
